Results from PubChem BioAssay AID493208 (National Center for Advancing Translational Sciences (NCATS), 2011).
Hit rate of the full screen: of about 44,000 compounds, about 340 (0.77%) were called active. Not shown: some 5% with an inconclusive outcome. Calls come from the whole dose curve; as a rule, active = well fitted inhibition curve with a large enough effect; inconclusive = small, poorly fitted or top-dose-only effect; inactive = flat fitted curve, though single readings scatter. Some of the results follow.

Test: Acumen qHTS Assay for Inhibitors of the mTORC1 Signaling Pathway in MEF (Tsc2-/-, p53-/-) Cells: Sytravon;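 note: plate controls were DMSO for no effect and rapamycin for full effect; nearly all actives have a fitted effect of over 50% in size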
Conditions: phospho-rpS6 immunofluorescence/PI, 24 h; series mostly up to 38.3 µM; activity change, negative = inhibition: at the top concentration
Summary of the method: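 Cell-based qHTS: Tsc2-/- p53-/- MEF, 24 h cpd, 37 °C; fix/perm, anti-phospho-S6 Alexa-488 + PI; Acumen 488 nm scan; pS6/PI ratio, % positive cells; rapamycin 7.5 nM = inhibition ref; PI count = viability.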

Activity change, negative = inhibition, inactive:
COc1ccc(-n2nc(C(=O)Nc3ccc(C)cn3)c3c4ccccc4n(C)c3c2=O)cc1 -1.04%
Cc1ccc(-n2cc(-c3ccccc3)nc2S(=O)(=O)CC(=O)Nc2ccc(F)cc2)cc1 -17.8%
O=C(CNC(=O)c1ccccc1F)OCc1cc(=O)n2ccsc2n1 5.97%
COc1ccccc1C(=O)Nc1nnc(SCc2cc(=O)c3cc(Cl)ccc3[nH]2)s1 -5.83%
COc1ccc(OC)c(NC(=O)Cn2ccc3ccccc3c2=O)c1 2.32%
COc1ccc(NC(=O)c2c(-c3ccc(C)cc3)nnc3ccccc23)cc1Cl -0.562%
CCN(CC)C(=O)Cn1c(=O)n(-c2ccc(OC)cc2OC)c(=O)c2c(C)c(C(=O)N(CC)CC)sc21 -0.216%
Cc1ccc(C)c(N2CCN(C(=O)C3CCCN(S(=O)(=O)c4cccc5nsnc45)C3)CC2)c1 (stereo not given) -11.5%
O=S(=O)(c1ccccc1)c1nc(-c2ccc(Cl)cc2Cl)oc1N1CCCCC1 -14.9%
Cc1ccc(CN2CCN(C3CCN(C(=O)c4ccccc4)CC3)C(=O)C2=O)cc1 -11.2%
Cc1ccc(C(=O)Nc2cccc(O)c2)cc1S(=O)(=O)N1CCCCCC1 8.1%
CCN(CC)CCCNC(=O)c1cn(CC)c2ccc(S(=O)(=O)N3CCc4ccccc4C3)cc2c1=O 1.56%
COc1ccc(CCNC(=O)c2ccc3c(c2)N(Cc2cc(C)ccc2C)C(=O)c2ccccc2S3=O)cc1OC (stereo not given) -2.83%
CCCCOc1ccc(CNC(=O)Cc2ccc(NC(=O)N3CCCCc4ccccc43)cc2)cc1 -1.53%
COc1ccc(-c2nc(SCC(=O)N3CCN(c4ccc(F)cc4)CC3)n[nH]2)cc1 -2.44%
CCn1c(=O)n(-c2ccc(F)cc2)c(=O)c2sc3ccccc3c21 8.54%
CC(C)(C)OC(=O)N1CCC(c2c(C(=O)N3CCN(c4ccccc4)CC3)cnn2-c2ccccc2)CC1 -7.7%
CC(=O)N1CCC2(CC1)OC(=O)C(C)=C2C(=O)Nc1cc(C)ccc1C -0.434%
Cc1cc(Br)ccc1NC(=O)Cn1cnc2sc(C)c(S(=O)(=O)N3CCN(C)CC3)c2c1=O 5.63%
COC(=O)c1sc2cccc(F)c2c1S(=O)(=O)Nc1ccc(N(C)C)cc1 -18.5%
CCCN(C(=O)c1cc2ccc3cccnc3c2[nH]1)c1ccc(F)cc1 4.13%
CC(=O)Nc1ccc(-n2c(CCC(=O)O)ccc2-c2ccc(Br)cc2)cc1 0.708%
COc1ccc(Cl)cc1NC(=O)Cn1c(=O)n(Cc2cccs2)c(=O)c2cccnc21 -0.32%
COc1ccc(CNC(=O)Cc2c(C)c3c(cc(C)c4c(C)coc43)oc2=O)cc1OC -0.0726%
Cc1nc2cccnc2n1C1CCN(S(=O)(=O)N(C)C)CC1 2.25%
COc1ccc(Br)c2c1-c1nc(NC(=O)c3ccccc3F)sc1C2 -7.95%
CCc1ccc(-c2[nH]nc3nc(-c4ccc(OC)cc4)cc(C(=O)NCCCOC)c23)cc1 -9.39%
COC(=O)c1ccccc1NC(=O)c1ccc(COc2cc(C)cc(C)c2)o1 -1.72%
COc1ccc(CCCc2nnc(SCC(=O)Nc3cc(C)ccc3C)o2)cc1 -1.28%
Cc1nc2ccc(S(=O)(=O)N(CC(=O)Nc3cccc(Cl)c3)Cc3ccccc3)cc2s1 1.36%
Cc1nn(CC(=O)NCc2ccc(N(C)C)cc2)c(=O)c2c(C)n(-c3ccc(Cl)cc3)nc12 -11.6%
CCOc1ccc(NC(=O)CCn2c(=O)c3cccn3c3cccnc32)cc1 1.09%
Cc1nn(-c2ccc(F)cc2)c(-n2cccc2)c1C(=O)N1CCN(c2ccccc2)CC1 -12.3%
Cc1cc2nn(-c3ccccc3)nc2cc1NC(=O)COc1ccc(Cl)cc1 -13.9%
CCOc1ccc(Cn2nnc(C(=O)Nc3cccc(SC)c3)c2N)cc1 4%
CCCN(CCC)C(=O)Cn1c(=O)n(-c2ccc(C)c(C)c2)c(=O)c2c3c(sc21)CCCCC3 2.95%
Cc1cc(NC(=O)c2cc(-c3cccc(Cl)c3)on2)nn1Cc1ccc(Cl)cc1 2.37%
CC1CCC(NC(=O)CCc2cn(Cc3ccccc3Cl)c3ccccc23)CC1 (stereo not given) 3.56%
Cc1ncc(CO)c2c1Oc1nc(-c3ccc(F)cc3)nc(SCC(=O)N3CCCCC3)c1C2 3.74%
Cc1ccc(CN2C(=O)N(c3ccc(F)cc3)C(=O)C2CC(=O)Nc2ccc(Cl)cc2)cc1 (stereo not given) -18.1%
COC(=O)CN1C(=O)CSc2ccc(S(=O)(=O)Nc3cccc(Br)c3)cc21 -1.09%
Cc1ccc(NC(=O)CSc2nnc(-c3cc4occc4n3C)n2-c2ccccc2C)c(Cl)c1 -12.5%
O=C(NCCc1ccccc1)C1CCN(c2ncnc3c2nc2n3CCCCC2)CC1 -12.1%
COc1ccc(NC(=O)CSC2=Nc3ccccc3C3=NC(CCC(=O)NCc4cccs4)C(=O)N23)cc1 (stereo not given) -9.26%
Cc1ccc(C)c(Cn2c3ccccc3c3cnn(CC(=O)NC4CCC(C)CC4)c(=O)c32)c1 (stereo not given) -1.12%
CC1=C(C(=O)NCc2cccc(Br)c2)C2(CCCCC2)OC1=O 3.06%
CCCCOC(=O)/C(C#N)=C/c1ccc(-c2cccc(C(F)(F)F)c2)o1 8.97%
CCOc1ccc(-c2nonc2NC(=O)c2ccco2)cc1 0.175%
CCOc1ccc(NC(=O)CSc2nc3c(oc4ccccc43)c(=O)n2-c2cc(C)cc(C)c2)cc1 0.8%
COc1cc(/C=C/c2nc(C#N)c(N3CCCCC3)o2)cc(OC)c1OC -0.447%
Cc1ccccc1CNC(=O)C1CCN(S(=O)(=O)Cc2ccccc2)CC1 -5.55%
Cc1nnc(N2CCC(C(=O)Nc3ccc(F)cc3)CC2)c2nn(-c3ccc(Cl)cc3)c(C)c12 -22.5%
Cc1ccc(C(=O)Nc2c(-c3ccccc3)nc3ccccn23)cc1 -12%
Cc1ccc(C2c3[nH]c4ccccc4c3CCN2C(=O)c2ccccc2Br)cc1 (stereo not given) 2.6%
CCC(C(=O)OCc1cc(=O)n2nc(C)sc2n1)c1ccccc1 (stereo not given) 3.44%
Cc1cccc(-c2noc(CN(C3CCCCC3)S(=O)(=O)c3ccc(F)cc3)n2)c1 -16.4%
COc1ccc(OC)c(NC(=O)c2c(NCc3sccc3C)sc3c2CCCCC3)c1 -13.6%
COc1ccc2c(c1)-c1nc(NC(=O)c3ccc(OC)c(Br)c3)sc1CC2 -16.8%
COc1ccc(CNC(=O)CN(c2ccc(C(C)C)cc2)S(=O)(=O)c2c(C)nn(C)c2C)cc1 -5.61%
COc1ccc(NC(=O)CSc2nc3ccccc3nc2N2CCC(C)CC2)cc1 -1.16%
